# Test results reported in PubChem BioAssay AID1347073 (National Center for Advancing Translational Sciences (NCATS), 2019).
# Out of some 45,000 compounds screened, about 200 (0.44%) were called active. Another 7% or so got no clear call; they are omitted. The call rests on the fitted dose curve; in most records, active means well fitted activation curve with a large enough effect; inconclusive means small, poorly fitted or top-dose-only effect; inactive means no such curve, though single readings can be large or run the other way. The list shows a part of the results.
# Experiment: qHTS of TDP-43 Inhibitors: NCGC Sytravon Library Screen; further: 0% is about no effect; nearly all actives have a fitted effect of over 55% in size
# Settings: yeast TDP-43 toxicity rescue, BacTiter-Glo growth, 24 h; series mostly up to 46.1 µM; growth rescue (activation): at the top concentration
# How it was run: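 TDP-43-expressing yeast, pregrown in raffinose, seeded at OD600 0.02 in galactose medium with compound for 24 hr at 30 deg C. Growth read by BacTiter-Glo luminescence, so rescue of toxicity appears as activation.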
row,SMILES,growth rescue (activation)
1,O=C(Nc1ccc2c(c1)OCO2)c1ccc2sc([C@H]3C[C@H](O)[C@@H](CO)O3)nc2c1,inactive: -2.33%
2,COc1cc(-c2noc(-c3nnn(-c4ccc(Cl)cc4)c3C)n2)cc(OC)c1OC,inactive: 12.1%
3,CSc1nc2ccc(NS(=O)(=O)c3ccc4c(c3)OCCO4)cc2s1,inactive: 24.6%
4,COc1ccccc1/C=C/C(=O)OCC(=O)NC1CCS(=O)(=O)C1 (centres undefined),inactive: 13.5%
5,CC(O)(c1cccc(F)c1)c1nc(-c2cc(F)cc(F)c2)cs1 (centres undefined),inactive: -58.7%
6,CCOc1ccc(NC(=S)N2CCCN(Cc3cccc(Cl)c3)C2)cc1,inactive: 10.7%
7,CCOc1ncccc1C(=O)NCCc1c[nH]c2ccccc12,inactive: 28.4%
8,COC(=O)c1ccc(NC(=S)NCCCn2ccnc2)cc1,inactive: 7.87%
9,O=C(C1CCN(S(=O)(=O)N2CCOCC2)CC1)N1CCN(c2ccccc2F)CC1,inactive: -13.6%
10,COc1ccc(-c2ccc(SCC(=O)N3CC(=O)Nc4ccccc43)nn2)cc1,inactive: -8.06%
11,COCCCNc1oc(/C=C/c2ccccc2)nc1C#N,inactive: 26.7%
12,O=S(=O)(Cc1cccc(C(F)(F)F)c1)c1ncn[nH]1,inactive: 3.54%
13,C=CCn1cc(-c2cccc(C(F)(F)F)c2)cc(C#N)c1=O,inactive: 11.2%
14,CC(C)N(CCO)C(=O)CCc1nnc(CCCc2ccccc2)o1,inactive: -8.03%
15,O=C(O)c1ccc[nH]c1=S,inactive: -0.0437%
16,COc1ccc(Nc2nc(-c3ccccc3)c3cc(Br)ccc3n2)cc1,inactive: 7.04%
17,CC(C)Oc1ccc(CNC(=O)c2ccc3c(c2)N(Cc2ccc(F)cc2)CCS3)cc1,inactive: -0.275%
18,CC(=O)NCCc1nc2ccccc2n1CCc1ccccc1,inactive: -13.6%
19,COC(=O)c1ccccc1NC(=O)COC(=O)/C=C/c1cccs1,inactive: 12.1%
20,Cc1cc(NC(=O)CCCn2nc([N+](=O)[O-])cc2C)no1,inactive: -6.2%
21,COc1ccc(C(=O)NN/C(=N/S(=O)(=O)c2ccc(C)cc2)c2ccccc2)cc1,inactive: 20.8%
22,COCCN(C(=S)Nc1ccccc1C)C(C)c1cccs1 (centres undefined),inactive: 9.84%
23,O=C(c1ccccc1NS(=O)(=O)c1cccc(C(F)(F)F)c1)N1CCc2ccccc21,inactive: 14.3%
24,CC(=O)Nc1scc(-c2ccccc2)[n+]1-c1ccc(C)cc1,inactive: 26.4%
25,Cc1cc(C)nc(/N=C(\N)Nc2ccc(OCc3ccccc3)cc2)n1,inactive: 2.51%
26,O=c1c2c(n3cnnc3n1-c1ccccc1)-c1ccccc1CC21CCCC1,inactive: -8.6%
27,Cc1oc(-c2ccc(-c3ccccc3)cc2)nc1CN1CCN(CC(=O)N(C)C)CC1,inactive: 9.83%

row,SMILES,growth rescue (activation)
1,O=S1(=O)CCC(=Nc2ccc(Cl)cc2)c2ccsc21,inactive: 2.61%
2,O=C(Nc1ccccc1C(=O)Nc1ccncc1)c1ccccc1,inactive: -6.62%
3,O=C(COC(=O)C1CCN(S(=O)(=O)c2cccs2)CC1)Nc1ccccc1,inactive: 5.32%
4,Cc1onc(-c2ccccc2Cl)c1C(=O)N1CCN(C)CC1,inactive: 7.67%
5,CCC1(Cc2ccccc2)NC(=O)c2ccccc2O1 (centres undefined),inactive: 13.6%
6,O=c1[nH]c(C2CCCCC2)nc2ccccc12,inactive: 38.6%
7,CC(C)(CNC(=O)C1CCN(S(=O)(=O)c2cc([N+](=O)[O-])ccc2Cl)CC1)N1CCOCC1,inactive: 1.27%
8,CC(=O)c1c(C)[nH]c(C(=O)OCc2cc(-c3ccco3)on2)c1C,inactive: 10.8%
9,COc1ccc(CN(C)CC(=O)Nc2ccc(N3CCOCC3)cc2)cc1OC,inactive: 12.4%
10,CCOc1ccc2[nH]c(C(=O)N/N=C/c3ccc(OC)cc3)cc2c1,inactive: 11.5%
11,Cc1cccc(CCNS(=O)(=O)c2cnc[nH]2)c1,inactive: 13.1%
12,CC(NS(=O)(=O)c1ccc2c(c1)CC(=O)N2C)c1ccccc1 (centres undefined),inactive: -9.22%
13,Cc1ccc(C(=O)N2CCCCC2)cc1S(=O)(=O)N1CCOCC1,inactive: 24%
14,O=c1[nH]nc(-c2cccs2)c2ccccc12,inactive: 5.13%
15,Cc1cc2cc(CN(Cc3ccc4c(c3)OCO4)C(=O)c3ccco3)c(=O)[nH]c2cc1C,inactive: 20.4%
16,Cc1cccn2c(CN(C)C3CCOC3)c(C(=O)N3CCCCC3)nc12 (centres undefined),inactive: 1.85%
17,COc1ccc(CN2CCNC(=O)C2CC(=O)NCCc2nc(C)c(C)s2)c(OC)c1 (centres undefined),inactive: 10.7%
18,Cc1ccc(CN2CCN(Cc3cn(C(C)C)c4ccccc34)CC2CCO)o1 (centres undefined),inactive: 22.2%
19,O=C1C2C3C=CC(O3)C2C(=O)N1CC(O)c1ccccc1 (centres undefined),inactive: -23.6%
20,Cc1[nH]n(-c2ccccc2)c(=O)c1C=NC1CCCCCC1,inactive: 16.6%
21,COc1ccccc1/C=C(/CC(=O)NCc1ccccc1)c1nc2ccccc2s1,inactive: 21.8%
22,CCOc1ccccc1N1CCN(C(=S)Nc2ccc(S(N)(=O)=O)cc2)CC1,inactive: -1.31%
23,COc1cccc(OC)c1C(=O)NC(=S)Nc1ccc2oc(-c3ccncc3)nc2c1,inactive: 14.1%
24,O=C(Nc1ccccc1N1CCOCC1)c1ccc([N+](=O)[O-])s1,inactive: -75%
25,Cc1ccc(C)[n+](CC(=O)N2CCCCC2)c1,inactive: -15.1%
26,O=C1N/C(=N/N=C/c2ccccc2O)SC1Cc1ccc(F)cc1 (centres undefined),inactive: 18.5%
27,COc1ccc(NC(=O)COc2cccc(-n3cnnn3)c2)cc1,inactive: -8.92%
